PubChem BioAssay AID504832 (National Center for Advancing Translational Sciences (NCATS), 2011)
Out of some 310,000 compounds screened, about 18,000 (5.8%) were called active. Inconclusive means that the source gave no clear call. Such entries were picked first, then a sample of the others. Calls come from the whole dose curve; as a rule, active = well fitted inhibition curve with a large enough effect; inconclusive = small, poorly fitted or top-dose-only effect, or another doubt; inactive = no such curve, though single readings can be large or run the other way. Potencies of inconclusive entries are left out as doubtful fits.

assay: Primary qHTS for delayed death inhibitors of the malarial parasite plastid, 48 hour incubation; conditions: P. falciparum luciferase growth in erythrocytes; series mostly up to 28.7 µM; activity change, negative = inhibition: at the top concentration
In short: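 Parasite viability was followed by luminescence of a genomically integrated firefly luciferase. Cultures held 0.1% parasitemia at 2% hematocrit (final), incubated under 5% CO2 at 37 C.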
% is set by controls: 0 for no effect and ±100 for the full control effect; potency is the fitted concentration of half-maximal effect; tags give direction and shape of the fitted curve.

Row | SMILES | Potency | activity change, negative = inhibition
1 | COc1cccc(CC(=O)OCC(=O)N(C)CC(=O)Nc2ccccc2Cl)c1 | inconclusive [inhibitor, partial curve, poor fit] | 
2 | COc1ccc2c(c1)C(c1ccc(C)o1)=NNC(c1cccnc1)=N2 | inconclusive [inhibitor, partial curve] | 
3 | CN(CC(=O)Nc1ccc(S(=O)(=O)N2CCCC2)cc1)Cc1ccc(Cl)cc1Cl | inconclusive [inhibitor, partial curve] | 
4 | CCOc1c(S(=O)(=O)NC2CC(C)(C)NC(C)(C)C2)ccc(Cl)c1Cl |  | inactive: -4.73%
5 | CCOC(=O)N/N=C/c1ccc(Oc2ccccc2)cc1 | inconclusive [inhibitor, partial curve] | 
6 | O=C(NC1CCCCC1)C(c1cccnc1)N(C(=O)CCl)c1ccc(F)cc1 (stereo not given) | inconclusive [inhibitor, partial curve, poor fit] | 
7 | CC(C)c1ccc2c(c1)[C@H]1OCC[C@H]1[C@@H](c1cccs1)N2 |  | inactive: 33.9%
8 | CCOC(=O)c1cc(-c2ccccc2)n(CC(=O)O)c1C |  | inactive: 24.2%
9 | COCCNC(=O)c1onc(CSc2ccc(F)c(F)c2)c1C(=O)O | inconclusive [inhibitor, single point] | 
10 | COc1c(Cl)cnn(-c2ccccc2)c1=O |  | inactive: -4.84%
11 | Cc1ccccc1NCc1nnc2n1CCCCC2 |  | inactive: -4.99%
12 | CCc1ccc2ncc(C(=O)c3ccccc3)c(N3CCOCC3)c2c1 | inconclusive [inhibitor, full curve, poor fit] | 
13 | O=S(=O)(/N=C(/Nc1cccc2ccccc12)c1ccccc1)c1cccs1 | inconclusive [inhibitor, single point] | 
14 | Cn1c(SCc2cccc(F)c2)nnc1-c1ccncc1 | inconclusive [inhibitor, partial curve, poor fit] | 
15 | COCCN(C(=O)CCC(=O)Nc1cc(C)on1)C(C(=O)NC1CCCC1)c1ccccc1C (stereo not given) | inconclusive [inhibitor, single point] | 
16 | COc1ccc(-c2cnnc(N/N=C/c3ccc(OC)c(OC)c3)n2)cc1 |  | inactive: 5.03%
17 | CN(Cc1ccccc1)c1ccc(C(CC(N)=O)NC(=O)Cc2ccc(Br)cc2)cc1[N+](=O)[O-] (stereo not given) | inconclusive [inhibitor, partial curve] | 
18 | COC(=O)C1=C(C)N(Cc2ccccc2)C(=NCC2CC2)N[C@H]1c1ccc(Br)cc1 | inconclusive [inhibitor, single point] | 
19 | CCN(CC)S(=O)(=O)c1cccc(-c2nnc(SCC(=O)NC)n2CCc2ccccc2)c1 | inconclusive [inhibitor, partial curve, poor fit] | 
20 | O=C(N/N=C/c1ccc(Br)s1)c1cccnc1 | inconclusive [inhibitor, single point] | 
21 | COc1ccc(/C=C(\C#N)C(=O)N2CCOCC2)cc1Br | inconclusive [inhibitor, full curve, poor fit] | 
22 | CCOC(=O)c1cnc2c(cnn2C)c1Oc1ccc(OC)cc1 | inconclusive [inhibitor, partial curve] | 
23 | O=S(=O)(c1cc(O)ccc1O)c1cccc2c(S(=O)(=O)c3cc(O)ccc3O)cccc12 | active: 10.4 µM | 

Row | SMILES | Potency | activity change, negative = inhibition
24 | CCN(CC)C(=O)N1CCN(c2c([N+](=O)[O-])c(=O)oc3ccccc23)CC1 |  | inactive: -1.54%
25 | COc1ccc(/C=N/Nc2nc(Nc3ccccc3)nc(N3CCCCC3)n2)c(OC)c1 | inconclusive [inhibitor, single point] | 
26 | COc1cccc(NS(=O)(=O)NC(=O)c2c[nH]c3ccccc23)c1 | active: 11.7 µM | 
27 | CCCCOc1ccc(NS(=O)(=O)c2ccc(-n3cnnn3)cc2)cc1 | inconclusive [inhibitor, single point] | 
28 | CCSc1ccccc1C(=O)N1CCC2(CC1)CC(=O)c1ccccc1O2 | inconclusive [inhibitor, single point] | 
29 | CC(C)C1Oc2ccccc2N(CC(=O)N(Cc2ccccn2)C2CC2)C1=O (stereo not given) | inconclusive [inhibitor, single point] | 
30 | CC1CCN(S(=O)(=O)CCNC(=O)c2ccc(F)cc2)CC1 |  | inactive: 18.7%
31 | CC1CN(CC(O)COC(c2ccc(Cl)cc2)c2ccc(Cl)cc2)CC(C)O1 (stereo not given) | active: 3.7 µM | 
32 | CCc1c(C(=O)Nc2ccncc2)csc1C | active: 8.28 µM | 
33 | Cc1ccccc1-n1c(SCc2csc(Nc3ccccc3)n2)nnc1-c1cccnc1 | inconclusive [inhibitor, partial curve] | 
34 | O=C(CSc1ncn[nH]1)N1N=C2/C(=C/c3ccccc3)CCCC2C1c1ccccc1 (stereo not given) | inconclusive [inhibitor, single point] | 
35 | Cc1cc(=O)oc2cc(OCC(=O)NC3(C#N)CCCCC3)c(Cl)cc12 |  | inactive: 0.905%
36 | NNC(=O)CNC(c1ccccc1)c1cc(Br)ccc1NC(=O)c1ccc(Br)cc1 (stereo not given) | active: 8.28 µM | 
37 | COc1ccc(C2/C=C\CN(S(=O)(=O)/C=C/c3ccccc3)[C@H](Cc3ccccc3)C(=O)N2Cc2ccc(F)cc2)cc1 (stereo not given in full) | inconclusive [inhibitor, partial curve, poor fit] | 
38 | CCCN(CCC)C(=O)CC(c1ccccc1)c1ccco1 (stereo not given) | active: 11.7 µM | 
39 | COc1cccc(CC(=O)OCC(=O)NNC(=O)c2ccc([N+](=O)[O-])cc2)c1 |  | inactive: 8.74%
40 | COc1ccc(CC(=O)OCC(=O)c2ccc(OC)c(OC)c2)cc1 |  | inactive: -1.11%
41 | CCOc1ccccc1N(CC(=O)Nc1ccc(OC)cc1)S(=O)(=O)c1ccccc1 | inconclusive [inhibitor, single point] | 
42 | COc1ccc(C2N=C(c3ccccc3)C(C)(C)N2O)cc1OC (stereo not given) |  | inactive: -3.58%
43 | COc1ccc(OC)c(NS(=O)(=O)c2ccc3c(c2)n(C)c(=O)n3C)c1 |  | inactive: -9.87%
44 | Cc1cc(NC(=O)COC(=O)CCS(=O)(=O)c2cc(Cl)ccc2Cl)no1 |  | inactive: 7.14%
45 | COc1ccc(OC)c(NC(=O)CCCSc2ccccc2)c1 | inconclusive [inhibitor, full curve] | 
